# Results taken from PubChem BioAssay AID1508624 (National Center for Advancing Translational Sciences (NCATS), 2021).
# The campaign covered roughly 48,000 compounds. About 120 (0.25%) were called active. Roughly 4% stayed inconclusive and do not appear here. Calls come from the whole dose curve; as a rule, active = well fitted activation curve with a large enough effect; inconclusive = small, poorly fitted or top-dose-only effect, or another doubt; inactive = no such curve, though single readings can be large or run the other way. The entries are a selection whose mix differs from that of the whole data set. The source gives no active or inactive call for entries shown without one.
# Experiment: Primary qHTS for Identification of Small Molecule Activators of Huntingtin-Antisense Promoter Activity; note: nearly all actives have a fitted effect of over 55% in size
# Conditions: HEK293 HTT-AS promoter firefly luciferase reporter, 24 h; activity change, positive = activation: at 57.5 µM (top of the series), percent change from vehicle, -100% = no light
# In short: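 Luminescence was read after Dual-Glo reagent and a 10 min room-temperature incubation. Values were normalized to vehicle (0% activity) and zero RLU (-100% activity). Reporter HEK293 cells had been exposed to compounds (up to 57.5 uM final) for 24 h.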
# Potency is the fitted concentration of half-maximal effect.
Compound,"activity change, positive = activation",Potency
CC(CNC(=O)c1cc2ccccn2n1)c1ccccc1 (stereo not drawn),62.4%,–
COc1ccc(-c2nc(SCCOc3cc(C)ccc3C(C)C)n3[nH]c(=O)cc3n2)cc1,-4.43%,–
Cc1cc(C)cc(NC(=O)c2cc3c(=O)n(Cc4ccco4)ccc3nc2C)c1,-14.2%,–
O=S(=O)(c1ccc(Cl)cc1)c1nnn2c1nc(NCc1ccccc1)c1sccc12,inactive: -8.9%,–
Cc1cc(NC(=O)c2ccco2)cc(-c2nc3cc(Cl)ccc3o2)c1O,inactive: -16.7%,–
CSc1cccc(NC(=O)CC(c2ccc(F)cc2)N2Cc3ccccc3C2=O)c1 (stereo not drawn),-51.1%,–
Cn1c(=O)n(C)c2cc(N3CCOCC3)c(NS(=O)(=O)c3ccc(Br)cc3)cc21,6.42%,–
O=C(Nc1ccc(F)cc1F)c1cc(-c2ccc3c(c2)OCO3)on1,24.2%,–
Cc1cccc(OCC(=O)Nc2cccc(-c3nc4ccccc4s3)c2)c1,76.7%,–
CCOc1ccccc1NC(=O)c1ccc(C(=O)Nc2ccccc2OCC)cc1,0.155%,–
CCc1cccc(C)c1NC(=O)c1nc2ccccc2nc1N1CCCCC1,inactive: -2.99%,–
COc1ccc(C2C(=O)N(C3CCCCCC3)CC(=O)N2Cc2ccccc2)cc1 (stereo not drawn),-26%,–
CCCCNC(=O)c1cc(-c2ccc(Cl)c(Cl)c2)on1,23.1%,–
Cc1ccc(NC(=O)c2ccc3c(c2)NC(=O)c2ccccc2S3)cc1,-45.9%,–
COc1ccc(-c2cc(C(=O)Nc3sc4c(c3C(N)=O)CCC(C)C4)no2)cc1 (stereo not drawn),-4.12%,–
Cn1c(=O)[nH]c(=O)c2c1nc(NCCO)n2CC(O)COc1ccccc1 (stereo not drawn),2.94%,–
COc1ccc(-c2cc(C(=O)N3CCN(c4ccc(F)cc4)CC3)no2)cc1OC,-7.43%,–
O=S(=O)(Nc1cccc(-c2ccc(N3CCOCC3)nn2)c1)c1ccccc1C(F)(F)F,6.19%,–
Cc1ccccc1NC(=O)c1c(NC(=O)C(F)(F)F)sc2c1CCCCC2,inactive: -96.1%,–
COc1ccc(OC)c(S(=O)(=O)Nc2cccc(-c3ccc(N4CCCCCC4)nn3)c2)c1,6.51%,–
O=C(C1CCN(S(=O)(=O)Cc2ccccc2)CC1)N1CCN(c2ccccc2F)CC1,0.56%,–

Compound,"activity change, positive = activation",Potency
CCc1ccccc1OCCSc1nnc(-c2cc(OC)c(OC)c(OC)c2)o1,-9.41%,–
COc1ccc(S(=O)(=O)Nc2cccc(-c3ccc(N4CCCC4)nn3)c2)cc1OC,2.51%,–
COc1ccc(-c2cc(C(=O)Nc3sc4c(c3C#N)CCCC4)no2)cc1OC,5.61%,–
CCCc1cc(C(=O)Nc2c(C)nn(Cc3ccc(Cl)c(Cl)c3)c2C)no1,-36%,–
Cc1ccc(C(=O)c2sc(Nc3ccc(F)cc3)nc2N)c(C)c1,9.81%,–
CCN1CCOC(=O)C1CC(=O)Nc1cc(Cl)ccc1C (stereo not drawn),inactive: -15.2%,–
CCOC(=O)c1cccc(NC(=O)CC2C(=O)N(c3ccc(F)cc3)C(=O)N2Cc2cccc(OC)c2)c1 (stereo not drawn),-10.8%,–
Cc1nn(-c2ccc(N3CCOCC3)nn2)c(C)c1CCC(=O)Nc1ccc(F)cc1F,27%,–
Cc1cc(C)cc(OCCSc2nc(-c3cccs3)nc3cc(=O)[nH]n23)c1,-0.815%,–
Cc1ccc(S(=O)(=O)Nc2nc3ccccc3nc2Nc2ccc3nsnc3c2)cc1,"inactive: -26.8% [at 25.1 µM, percent change from vehicle, -100% = no light]",–
CCc1nn(CC(=O)NCCCc2ccccc2)c(=O)c2cc3c(OC)cccc3n12,-0.756%,–
CC(=O)c1ccc(NC(=O)c2cc(-c3ccc4c(c3)OCO4)on2)cc1,3.06%,–
Cc1ccc2nc(N3CCN(c4cccc(Cl)c4)CC3)c3nnnn3c2c1,-2.13%,–
N#CSCC(=O)O,inactive: 0.446%,–
Cc1onc(-c2c(F)cccc2Cl)c1C(=O)Nc1ccc(OC(C)C)cc1,inactive: -7.99%,–
COc1cc(C2C(=O)N(C3CCCCC3)CC(=O)N2CCC2=CCCCC2)ccc1OC(C)C (stereo not drawn),-6.05%,–
Cc1cc(C)cc(NC2=C(c3ccccc3)C(=O)c3ccccc32)c1,-37.3%,–
Cc1ccc(NC(=O)c2cc3c(=O)n(Cc4ccco4)ccc3nc2C)cc1C,-18.2%,–
CCOC(=O)c1c(NC(=O)c2cc(CC(C)C)on2)sc(C(C)=O)c1C,-8.17%,–
Cc1ccc(NC(=O)c2c(C)oc3ccc(O)c(CN4CCOCC4)c23)c(C)c1,-8.3%,–
COc1ccc(CCNC(=O)c2cnc3sc(N4CCCCC4)nn3c2=O)cc1OC,-1.33%,–

Compound,"activity change, positive = activation",Potency
CCOC(=O)c1c(-c2ccccc2)csc1NC(=O)c1cc(-c2ccc(C)c(F)c2)on1,-1.73%,–
CCOc1cccc(OCCCn2c(-c3ccc(Br)cc3)nc3ccccc3c2=O)c1,-0.398%,–
Cc1ccc(Cl)cc1N1CCN(C(=O)c2ccc3nc(N4CCC(C)CC4)sc3c2)CC1,inactive: -78.6%,–
Cc1ccccc1Cn1nc(C)c(NC(=O)c2cc(CC(C)C)on2)c1C,-25.5%,–
Cn1cnc2c(=O)oc3ccc(S(=O)(=O)N4CCN(c5ccccc5F)CC4)cc3c21,-15.7%,–
COc1ccccc1-c1cc(C(=O)NCCc2ccccc2)no1,42.4%,–
CCOC(=O)c1ccc(NC(=O)CC2C(=O)N(c3ccc(C)cc3)C(=O)N2C2CCCC2)cc1 (stereo not drawn),-33.1%,–
COC(=O)CN1C(=O)CSc2ccc(S(=O)(=O)Nc3c(C)cc(C)cc3C)cc21,-7.52%,–
CCc1ccc(NC(=O)c2c(C(=O)Nc3ccccc3)sc3nc(C)cc(=O)n23)cc1,-11.3%,–
COc1cccc(-c2cc(C(=O)N3CCN(c4ccc(F)cc4)CC3)no2)c1,-4.21%,–
Cc1ccc(Cc2nc3ccccc3nc2SCC(=O)NCCc2ccccc2)cc1,inactive: -14.6%,–
C=C(C)Cn1c(SCC(=O)Nc2cccc(Cl)c2)nc2sc3c(c2c1=O)CCCC3,-10.1%,–
COc1cc(NC(=O)c2cc(-c3cccc(Cl)c3)on2)c(OC)cc1Cl,0.426%,–
COc1cccc(CNC(=O)CCCn2c(=O)c3cccn3c3cccnc32)c1OC,inactive: -1.29%,–
CCCCOc1ccc(C(=O)Nc2onc3c2CCCC3)cc1,–,active: 12.6 µM
O=C(/C=C/c1cn(CC(O)CN2CCCCCC2)c2ccccc12)c1ccc(Br)cc1 (stereo not drawn),inactive: -25.9%,–
O=C(Nc1c(Cl)cccc1Cl)c1cc(-c2cccc(O)c2)on1,55.5%,–
Cc1ccc2oc(-c3ccc(Cl)c(NC(=O)c4ccc(OC(C)C)cc4)c3)nc2c1,31.4%,–
COC(=O)Cc1c(C)c2cc3c(c(C)c2oc1=O)OCN(CCc1ccc(OC)cc1)C3,-14.7%,–
COc1ccc(-c2cc(=O)oc3c4c(ccc23)OCN(Cc2cccc(OC)c2)C4)cc1,-26.2%,–
CSc1cccc(N2C(=O)N(CC(=O)NCc3ccccc3Cl)c3ccccc3S2(=O)=O)c1,inactive: -23.4%,–
